From PubChem BioAssay AID624296 (National Center for Advancing Translational Sciences (NCATS), 2012)
Hit rate of the full screen: of about 350,000 compounds, about 9,900 (2.8%) were called active. The inconclusive results got no clear call from the source; some entries with a clear call stand among them for comparison. Calls come from the whole dose curve; as a rule, active = well fitted activation curve with a large enough effect; inconclusive = small, poorly fitted or top-dose-only effect; inactive = no such curve, though single readings can be large or run the other way. Potencies of inconclusive entries are left out as doubtful fits.

Assay: A quantitative high throughput screen for small molecules that induce DNA re-replication in MCF 10a normal breast cells. Note: nearly all actives have a fitted effect of over 50% in size.
Conditions: MCF 10A DNA re-replication, Hoechst nuclear intensity, 48 h; series mostly up to 46.1 µM
Potency is the fitted concentration of half-maximal effect; tags give direction and shape of the fitted curve.

| SMILES | Potency |
| --- | --- |
| O=C(Cc1ccc(F)cc1)OCC(=O)c1cc2ccccc2o1 | inactive |
| CC(=O)Nc1cc2c3c(c1)CCN3C(=O)CC2 | inconclusive [activator, partial curve, poor fit] |
| Oc1ccc(/C=N/Nc2ccnc3cc(Cl)ccc23)c(O)c1 | inconclusive [activator, single point] |
| O=C(O)c1ccccc1NN=C1CCCCC1 | inconclusive [activator, partial curve, poor fit] |
| O=C1c2cccc3cc([N+](=O)[O-])cc(c23)C(=O)N1CCN1CCCC1 | inconclusive [activator, partial curve, poor fit] |
| COc1nc(N)nc2nc[nH]c12 | inconclusive [activator, partial curve, poor fit] |
| CC1Sc2ccc(S(=O)(=O)CCC(=O)N3CCc4ccccc43)cc2NC1=O (centres undefined) | inactive |
| Cc1ccc(S(=O)(=O)CCC(=O)N2CCN(c3ccccc3O)CC2)cc1 | inconclusive [activator, single point] |
| COc1ccc(CNc2ncnc3c2[nH]c2ccccc23)cc1 | inconclusive [activator, single point] |
| O=c1c2oc3nc4c(cc3c2ncn1CCCc1ccccc1)CCCC4 | inactive |
| CCOC(=O)C1(CCOc2ccccc2)CCN(Cc2ccc(O)c(OCC)c2)CC1 | inconclusive [activator, full curve] |
| O=C(/C=C/c1ccco1)NC(=S)Nc1ccccc1N1CCOCC1 | inconclusive [activator, partial curve, poor fit] |
| CC(=O)N=c1c(C#N)cc2c(=O)n3cccc(C)c3nc2n1Cc1ccco1 | inconclusive [activator, full curve, poor fit] |
| COc1cccc(-c2ccc(NC(=O)C3CCCN(Cc4cc(C)[nH]n4)C3)cc2)c1 (centres undefined) | inconclusive [activator, single point] |
| Cc1ccc(-n2ncc3c(N4CCC5(CC4)OCCO5)ncnc32)c(C)c1 | inactive |
| Fc1ccc(Oc2nc(-c3ccccn3)nc3ccccc23)cc1 | inconclusive [activator, single point] |
| O=C(COC(=O)c1cc(Br)ccc1O)NNC(=O)c1ccc(Cl)cc1 | inactive |
| CC(C)[C@H](NC(=O)C1CCCC1)c1nc2ccccc2[nH]1 | active: 9.2 µM |
| O=C(NNc1nc2ccccc2s1)Nc1ccc(F)cc1 | inconclusive [activator, partial curve, poor fit] |
